The supplement of paper PMC5998384

Legend:
[1] = system: HeLa Kyoto; assay: solubility in G1/S (NP-40 vs SDS abundance) (log2 ratio); higher = more soluble; details: cell cycle stage: G1/S
[2] = system: HeLa Kyoto; assay: solubility change mitosis vs G1/S (difference of NP-40 vs SDS log2 ratios) (log2 ratio difference); higher = more soluble in mitosis
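Throughout, for solubility change mitosis vs G1/S (difference of NP-40 vs SDS log2 ratios): synchronized HeLa Kyoto cells (double thymidine block for G1/S, nocodazole release for mitosis), protein amounts in NP-40 versus SDS lysates quantified by mass spectrometry, three biological replicates.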
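Throughout, for solubility in G1/S (NP-40 vs SDS abundance): HeLa Kyoto cells arrested at G1/S by double thymidine block, proteins quantified by TMT10plex mass spectrometry in mild NP-40 versus SDS extracts, three biological replicates.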

MCVCQTMEVGQYGKNASRAGDRGVLLEPFIHQVGGHSSMMRYDDHTVCKPLISREQRFYESLPPEMKEFTPEYKGVVSVCFEGDSDGYINLVAYPYVESETVEQDDTTEREQPRRKHSRRSLHRSGSGSDHKEEKASLSLETSESSQEAKSPKVELHSHSEVPFQMLDGNSGLSSEKISHNPWSLRCHKQQLSRMRSESKDRKLYKFLLLENVVHHFKYPCVLDLKMGTRQHGDDASAEKAARQMRKCEQSTSATLGVRVCGMQVYQLDTGHYLCRNKYYGRGLSIEGFRNALYQYLHNGLDLRRDLFEPILSKLRGLKAVLERQASYRFYSSSLLVIYDGKECRAESCLDRRSEMRLKHLDMVLPEVASSCGPSTSPSNTSPEAGPSSQPKVDVRMIDFAHSTFKGFRDDPTVHDGPDRGYVFGLENLISIMEQMRDENQ [IP6K1]
solubility in G1/S (log2) [1]: -0.0957
solubility change mitosis (log2) [2]: -0.0148
